# According to the RNAGym collection of RNA variant scans (doi:10.7554/elife.90254):
# The source gives no read counts; variants with many changes may rest on few reads.
# B1: LINE1-mini (parent)
# chain: GGCAGAGCUCAACACAGCGUGGCAAAGUGGCUGUGGCUAGACUGCC
# Variants of: B1
# Experiment: self-cleavage, relative activity (ratio to wild type); higher = more cleavage; in vitro, sequencing; the parent is a self-cleaving ribozyme
row,Variant,self-cleavage
1,C10G A11C C45G C46G,0
2,C10A G22U G40U,0.02
3,C10U A12U G33A G36A,0.02
4,C10G C15U G33A C45G,0.02
5,C10G C13A C15G C42U,0.01
6,C10G A12C A16U G44A C45U,0.01
7,C10G C15G C23U,0.03
8,C10A C37U A39U C45A,0.01
9,C10A G36A U43C,0.05
10,C10G A24G C31U U38G G44U,0.01
11,C10U C18A C23U C31G,0.06
12,C10A U34G G40U,0.02
13,C10U A16G A26G C37A,0.05
14,C10U C15U G29C G44C,0.2
15,C10A G35A C46U,0.01
16,C10A G22A C37U C45U,0
17,C10A G40C C42U,0.01
18,C10U A16G C18U,0.09
19,C10A G21C U32G U34C,0.01
20,C10A G30U U38C U43G,0
21,C10U A14G G29U C42G,0.05
22,C10G A11U G22U C23A U28C,0.02
23,C10A G21U A26C C37U,0.01
24,C10G A14C G29U C37U A39U,0.01

row,Variant,self-cleavage
1,C10G G17C C18A G27C A41C C45A,0
2,C10A G29C U32G,0
3,C10U A14C G22U G33U C42A,0.01
4,C10A G35C A39C,0
5,C10G C37G A41C C42U,0
6,C10G G22C G29A U34G C45G,0
7,C10A U34A U38G G40U U43A,0.02
8,C10G G21A C23A A26C G27A U32A U34A G40A C45A,0.01
9,C10A C37A A41C,0.02
10,C10A G19C G27C C31U,0.03
11,C10U C15G C18G,0.02
12,C10G G27U G36U U38C G44C,0
13,C10U C13G G27U U34G,0.03
14,C10U C15U A25U U38A,0.05
15,C10G C18U G21C,0.14
16,C10U C13A A14C C31A C37A,0.02
17,C10G C18A A41C,0.01
18,C10A G17U G35A C45A,0.03
19,C10U A14U C18A G22U A24C G30A G44A,0.03
20,C10U A26C G27U,0.11
21,C10A G17A G29C C31A,0
22,C10U A26U G30U C31G G35A C45G C46A,0.02
23,C10U A16G C37G A41C,0
24,C10U C31G G40U,0.05

row,Variant,self-cleavage
1,C10U A16U G27A G36A G40A C45A,0.02
2,C10A U20A U38G,0.02
3,C10U A11U G17C G19C G30A,0.04
4,C10G C13A G40C,0.03
5,C10G C15A A26C,0.02
6,C10A G30C G33C C37A,0.02
7,C10G G35U C37A,0.03
8,C10U A12U C13G G21C,0.06
9,C10A G17A G33U,0.01
10,C10G U43A G44A,0
11,C10G A25U G30C U43A,0
12,C10U A12C A24C,0.01
13,C10U A26U U43C C46U,0.11
14,C10G C23U C45G,0.01
15,C10G C18G G33A,0.01
16,C10U A12G C13U C18U,0
17,C10U C15A C37G,0.02
18,C10G C15A G30C,0.03
19,C10U A24C C46A,0.13
20,C10A G22C C45U,0.04
21,C10A G21A U38A C46A,0.13
22,C10U A26C U34A,0.12
23,C10A G22U C31U,0.02
24,C10G C13A U28C,0.02

row,Variant,self-cleavage
1,C10G A11G G22C C46A,0.01
2,C10U A39U C45G,0.34
3,C10A G17A G36U,0
4,C10A U20A G33A,0.05
5,C10G G27A U38A,0.01
6,C10G C18U G22U U38A,0.08
7,C10G G36A U43G,0.01
8,C10A C42U G44C,0.03
9,C10A G36A C42A,0
10,C10G A11G A16C C18G C23U A24G U38A,0
11,C10A G30U G44C,0.1
12,C10A G36U U43C,0.02
13,C10U A12U C13U,0.07
14,C10G G33U G35U,0.03
15,C10U C18G U32G,0.06
16,C10A G21A C46G,0.09
17,C10G A11G C23G U43A,0
18,C10G G17A G30A U38A G44C,0.02
19,C10G A26G G30A,0.08
20,C10A G27U G35U G36U A39G,0.01
21,C10A G36A C37U U43A,0
22,C10G U20A C23U G33U U43C C45A,0.01
23,C10U A16U A24G G27C U38C,0.02
24,C10G G29C G40A C45A,0.01

row,Variant,self-cleavage
1,C10U A14U U28A,0.34
2,C10U A24U U28C,0.11
3,C10U C23U G29U G30U,0.41
4,C10G C13U G29C,0.01
5,C10G A26C G36U U43C,0.01
6,C10G G22A A41U,0.07
7,C10A U20A U34C,0.01
8,C10G G21U G35U G40A,0.01
9,C10U A12C U20A C37A,0
10,C10A U28G A39G G40A,0.02
11,C10A G19C G30U,0.08
12,C10G C15A A16U C42U C46G,0
13,C10U A14U G36A,0.04
14,C10A U28C G30U,0.04
15,C10U A16G G33U C45U,0.15
16,C10G C23A G44A,0.06
17,C10U A12G U20G G21U C45A,0.03
18,C10A G19C A26G,0.01
19,C10U C23U A24G,0.47
20,C10G G17U C42U,0.04
21,C10A G19U G22U G27U U32G G40U,0
22,C10U A24C G40U,0.02
23,C10G A16G G27U U28A G29C,0.02
24,C10G G21C U34G,0.07

row,Variant,self-cleavage
1,C10G U38G C46U,0.02
2,C10U C23A U32G U43G,0.01
3,C10G A14G G35U,0.02
4,C10G C13A A26G C46U,0.02
5,C10U A11C A16C A39C,0
6,C10G U28A G30A G36C,0.04
7,C10U A11C G21A A41G C42A,0.02
8,C10U C15U A16G A25U,0.73
9,C10U A16U G36U C37U,0.02
10,C10G A11U C23A A25C C45G,0.01
11,C10U A24C C31U G36U,0.02
12,C10A U34A G36A C42A U43A G44U,0.05
13,C10A G27U G29A C37A G40A,0
14,C10G A11U G36U A39U,0.01
15,C10U A11G C13U G27A,0.03
16,C10A U32C U43G,0.05
17,C10A G27A U28A C31U,0
18,C10U A24C G33U,0.02
19,C10U A25U G29U U34A,0.18
20,C10U A11C G40U,0.04
21,C10A G22C G29A A39G,0.01
22,C10A G36A C37A A39U,0.01
23,C10A G21U G22C C46U,0.07
24,C10G C13U A14U G27U G30C,0.02

row,Variant,self-cleavage
1,C10A G30U G40C,0.02
2,C10A U28G G35A,0.01
3,C10A U28C G29C U32G C45A,0.02
4,C10G C23U A41U,0.07
5,C10U A25C A41U,0.05
6,C10G C18A A26U G27U G29A,0.02
7,C10G A11C C15G,0.02
8,C10U C18U C23G A24U G36A,0.03
9,C10A G33A U34G A41G C42G,0
10,C10U A16G U28G C31A G36A C37U,0.01
11,C10G U20A G22A G35A C37U,0.01
12,C10G A16U G35A,0.01
13,C10U C13A G21A,0.03
14,C10A C42U C46A,0.02
15,C10A C42U C45U,0.09
16,C10G G35U C45G,0.03
17,C10U C18G G21U,0.09
18,C10U C15U A16U U32G G35U C46U,0.01
19,C10G C18A U34A,0.01
20,C10G C15U A25C A26C U28C,0.02
21,C10G A14C C18G G22A G27C G29A,0
22,C10U A14G C31A G36C,0.02
23,C10U C18A C31G,0.12
